# Measured values: PubChem BioAssay (NCATS)
# The shares of active, inactive and inconclusive entries below differ from those in the screen. For some assays here: Potencies of inconclusive entries are doubtful fits and often do not repeat. For some assays here: “Side channel” marks fits to a control or component signal instead of the main read-out. Activity calls are given as the source filed them. Unless noted, calls follow the shape of the dose curve; as a rule, active = well fitted curve in either direction with a large enough effect (not every such curve was filed as active); inconclusive = small, poorly fitted or top-dose-only effect, or another doubt; inactive = flat fitted curve, though single readings scatter.
# Key:
# [1] = AP1 Signaling Pathway (AID 357); conditions: ME-180 AP-1-bla reporter, EGF-induced, beta-lactamase ratio, 5 h; at 7.69 µM (top of the series) unless noted; also: top concentration of the series differs between compounds; % is scaled to controls: 0 for no effect and ±100 for the full control effect
# Method in brief: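 AP-1-bla ME-180 cells with beta-lactamase reporter under AP-1 response element, stimulated with EC50 EGF; compounds titrated, 5 hours at 37 degrees Celsius. CCF4 read at 460/530 nm ratio; positive and negative modulators judged by AC50.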
# [2] = NFAT Signaling Pathway (AID 444); conditions: Jurkat NFAT-bla M1, carbachol, beta-lactamase ratio, 5 h;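 also: carbachol stimulus at about its EC50 of 1 µM final; % is scaled to controls: 0 for no effect and ±100 for the full control effect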
# Method in brief: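 Jurkat cells carrying an NFAT-driven β-lactamase reporter and co-transfected muscarinic M1 receptor were treated with compound plus carbachol (1 uM final, an EC50 level) for 5 h at 37 °C. CCF4 loading followed for 1 h at RT; 460/530 nm ratio gave %activity.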
# [3] = Stat Signaling Pathway (AID 446); conditions: ME-180 SIE beta-lactamase reporter, IL-6 stimulated, 5 h; at 7.69 µM (top of the series) unless noted;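 also: ME-180 cervical cancer cells given 40 pM IL-6 alongside compound; SIE-controlled beta-lactamase reporter measured as 460/530 nm FRET emission ratio; top concentration of the series differs between compounds; % is scaled to controls: 0 for no effect and ±100 for the full control effect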
# Method in brief: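 Emission at 460 and 530 nm (excitation 405 nm) reports SIE-controlled beta-lactamase in ME-180 cells. Cells received compound with 40 pM IL-6 for 5 hrs at 37 C; data scaled between 300 pM IL-6 and 125 nM JAK-inhibitor controls.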
# [4] = target: 3',5'-cyclic-AMP phosphodiesterase 4B (Homo sapiens) (UniProt Q07343); assay: qHTS Assay for Inhibitors of PDE-IV (AID 607; active = well fitted activation curve with a large enough effect in the main read-out, with a control signal flat, not every such curve was filed as active; inconclusive = small, poorly fitted or top-dose-only effect, or effect the other way, or a change in a side signal; also: potency is read from the fitted curve at half-maximal effect; as to activation (PDE inhibition): % of control where 0% means no effect); conditions: HEK293 ACTOne CNG channel cells, membrane potential fluorescence; activation (PDE inhibition): at 22.9 µM (top of the series)
# UniProt Q07343, sequence (Q07343 whole entry, looked up): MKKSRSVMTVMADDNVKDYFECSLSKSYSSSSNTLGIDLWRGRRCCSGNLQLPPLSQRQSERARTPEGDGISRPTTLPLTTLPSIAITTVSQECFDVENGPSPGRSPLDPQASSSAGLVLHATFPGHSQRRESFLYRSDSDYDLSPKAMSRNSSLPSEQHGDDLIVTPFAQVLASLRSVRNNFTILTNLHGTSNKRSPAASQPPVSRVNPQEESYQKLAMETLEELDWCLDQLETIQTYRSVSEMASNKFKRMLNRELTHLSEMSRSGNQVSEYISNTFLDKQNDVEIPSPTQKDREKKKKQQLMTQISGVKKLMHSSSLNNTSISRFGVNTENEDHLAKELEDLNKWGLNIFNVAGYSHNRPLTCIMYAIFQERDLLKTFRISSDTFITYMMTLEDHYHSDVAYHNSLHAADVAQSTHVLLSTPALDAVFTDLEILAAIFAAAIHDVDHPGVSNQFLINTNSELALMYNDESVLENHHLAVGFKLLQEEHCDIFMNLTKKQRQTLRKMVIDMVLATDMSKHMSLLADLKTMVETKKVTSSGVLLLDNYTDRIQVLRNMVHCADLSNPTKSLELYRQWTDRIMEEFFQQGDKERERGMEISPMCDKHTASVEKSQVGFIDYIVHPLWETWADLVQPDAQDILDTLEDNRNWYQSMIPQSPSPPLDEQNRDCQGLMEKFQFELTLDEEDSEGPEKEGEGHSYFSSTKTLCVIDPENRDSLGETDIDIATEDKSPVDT
# Method in brief: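 The readout is membrane depolarisation from a cAMP-sensing CNG channel, detected with a potential dye at ex 535/em 590. Cells were HEK293-derived (endogenous PDE-IV) at 1000 cells/well, titrated up to 22.9 uM final.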
# [5] = target: Cytochrome P450 2C19 (Homo sapiens) (UniProt P33261); assay: qHTS Assay for Inhibitors and Substrates of Cytochrome P450 2C19 (AID 899; active = well fitted curve in the direction sought with a large enough effect; inconclusive = small, poorly fitted or top-dose-only effect, or another doubt; inactive = no such curve, though single readings can be large; an effect the other way counts as inactive or inconclusive; also: top concentration of the series differs between compounds; % is scaled to controls: 0 for no effect and ±100 for the full control effect; nearly all actives have a fitted effect of over 60% in size)
# UniProt P33261, sequence (P33261 whole entry, looked up): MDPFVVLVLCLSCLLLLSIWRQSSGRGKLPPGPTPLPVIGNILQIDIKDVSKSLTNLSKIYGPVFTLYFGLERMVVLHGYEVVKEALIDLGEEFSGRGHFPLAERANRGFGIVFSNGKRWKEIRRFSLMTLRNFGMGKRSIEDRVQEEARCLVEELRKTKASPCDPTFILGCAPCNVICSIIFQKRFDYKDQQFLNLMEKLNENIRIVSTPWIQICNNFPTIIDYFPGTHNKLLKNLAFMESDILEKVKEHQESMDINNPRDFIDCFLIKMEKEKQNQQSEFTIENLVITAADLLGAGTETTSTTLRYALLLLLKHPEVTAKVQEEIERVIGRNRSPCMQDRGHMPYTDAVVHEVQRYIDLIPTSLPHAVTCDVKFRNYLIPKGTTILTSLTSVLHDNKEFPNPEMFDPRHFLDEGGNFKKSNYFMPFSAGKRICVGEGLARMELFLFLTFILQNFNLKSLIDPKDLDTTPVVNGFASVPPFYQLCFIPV
# Method in brief: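 NADPH-dependent conversion of Luciferin-H EGE (10uM, at KM) by 5nM enzyme in 50mM KPO4, 60 min at 37C following 10 min compound preincubation. Stopped with luciferin detection buffer; luminescence read after 20 min.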
# [6] = qHTS Assay for Identification of Small Molecule Agonists for Hypoxia Response Element Signaling Pathway (AID 914; active = well fitted activation curve with a large enough effect in the signal ratio, with a control signal flat, not every such curve was filed as active; inconclusive = small, poorly fitted or top-dose-only effect, or effect the other way, or a change in a side signal; the % refers to the signal ratio; also: potency is read from the fitted curve at half-maximal effect; as to activation: top concentration of the series differs between compounds; % of control where 0% means no effect); conditions: ME-180 (cervical carcinoma) HRE-bla reporter, beta-lactamase ratio, CoCl2, 17 h; activation: hits give high values
# Method in brief: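 qHTS titration; ME-180 HRE-bla cells; EC50 CoCl2 co-treatment, 17 h at 37 degrees Celsius; CCF4 dye, ex 405nm, em 460nm and 530nm; %Activity from ratio; AC50.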
# [7] = qHTS Assay for Lipid Storage Modulators (AID 1519; calls by dose curve; also: potency is read from the fitted curve at half-maximal effect); conditions: Drosophila S3 cells, BODIPY lipid droplet/cell ratio, laser cytometry, cells loaded with oleic acid; activity change, negative = inhibition: at 57.5 µM (top of the series) unless noted
# Method in brief: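 Cells seeded at 5,000 per well were treated with compounds over a concentration series and loaded with oleic acid (400 uM, as added). Lipid droplet fluorescence (488 nm excitation, 500-530 nm channel) was read by laser-scanning cytometry and normalized to 20 uM Triacsin C.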
# [8] = target: Tyrosyl-DNA phosphodiesterase 1 (Homo sapiens) (UniProt Q9NUW8); assay: Confirmation Assay for Inhibitors of Tyrosyl-DNA Phosphodiesterase (TDP1) (AID 489007; active = well fitted curve in the direction sought with a large enough effect; inconclusive = small, poorly fitted or top-dose-only effect, or another doubt; inactive = no such curve, though single readings can be large; an effect the other way counts as inactive or inconclusive; also: potency is read from the fitted curve at half-maximal effect; nearly all actives have a fitted effect of over 40% in size); conditions: recombinant human TDP1 enzymatic activity, dose-response
# UniProt Q9NUW8, sequence (Q9NUW8 whole entry, looked up): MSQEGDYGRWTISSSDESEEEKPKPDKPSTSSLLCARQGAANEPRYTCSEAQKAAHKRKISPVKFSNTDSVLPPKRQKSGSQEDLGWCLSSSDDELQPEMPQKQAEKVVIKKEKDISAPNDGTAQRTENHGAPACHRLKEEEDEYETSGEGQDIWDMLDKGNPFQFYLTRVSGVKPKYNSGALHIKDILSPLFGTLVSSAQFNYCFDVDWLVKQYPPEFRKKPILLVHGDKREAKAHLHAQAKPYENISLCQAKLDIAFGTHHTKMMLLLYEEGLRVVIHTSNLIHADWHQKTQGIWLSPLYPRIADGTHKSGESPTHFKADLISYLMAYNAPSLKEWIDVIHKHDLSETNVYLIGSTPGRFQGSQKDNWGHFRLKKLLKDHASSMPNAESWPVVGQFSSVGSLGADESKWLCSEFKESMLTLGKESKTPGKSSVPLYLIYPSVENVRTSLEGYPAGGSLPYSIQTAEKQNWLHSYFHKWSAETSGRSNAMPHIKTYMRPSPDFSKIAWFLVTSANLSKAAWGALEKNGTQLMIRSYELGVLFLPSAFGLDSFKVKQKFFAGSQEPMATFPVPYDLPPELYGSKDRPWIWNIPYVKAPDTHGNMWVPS
# Method in brief: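 AlphaScreen read-out: streptavidin donor and anti-FITC acceptor beads (10 ug/ml) bind intact substrate, so Tdp1 removal of tyrosine-FITC lowers signal. Enzyme 1 nM, substrate 15 nM, 5 min reaction at room temperature after 15 min compound preincubation.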
# [9] = target: Ubiquitin carboxyl-terminal hydrolase 1 (Homo sapiens) (UniProt O94782); assay: Inhibitors of USP1/UAF1: Pilot qHTS (AID 504865; active = well fitted curve in the direction sought with a large enough effect; inconclusive = small, poorly fitted or top-dose-only effect, or another doubt; inactive = no such curve, though single readings can be large; an effect the other way counts as inactive or inconclusive;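 also: rhodamine fluorescence freed from ubiquitin-rhodamine substrate followed over time; potency is read from the fitted curve at half-maximal effect; nearly all actives have a fitted effect of over 35% in size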)
# UniProt O94782, sequence (O94782 whole entry, looked up): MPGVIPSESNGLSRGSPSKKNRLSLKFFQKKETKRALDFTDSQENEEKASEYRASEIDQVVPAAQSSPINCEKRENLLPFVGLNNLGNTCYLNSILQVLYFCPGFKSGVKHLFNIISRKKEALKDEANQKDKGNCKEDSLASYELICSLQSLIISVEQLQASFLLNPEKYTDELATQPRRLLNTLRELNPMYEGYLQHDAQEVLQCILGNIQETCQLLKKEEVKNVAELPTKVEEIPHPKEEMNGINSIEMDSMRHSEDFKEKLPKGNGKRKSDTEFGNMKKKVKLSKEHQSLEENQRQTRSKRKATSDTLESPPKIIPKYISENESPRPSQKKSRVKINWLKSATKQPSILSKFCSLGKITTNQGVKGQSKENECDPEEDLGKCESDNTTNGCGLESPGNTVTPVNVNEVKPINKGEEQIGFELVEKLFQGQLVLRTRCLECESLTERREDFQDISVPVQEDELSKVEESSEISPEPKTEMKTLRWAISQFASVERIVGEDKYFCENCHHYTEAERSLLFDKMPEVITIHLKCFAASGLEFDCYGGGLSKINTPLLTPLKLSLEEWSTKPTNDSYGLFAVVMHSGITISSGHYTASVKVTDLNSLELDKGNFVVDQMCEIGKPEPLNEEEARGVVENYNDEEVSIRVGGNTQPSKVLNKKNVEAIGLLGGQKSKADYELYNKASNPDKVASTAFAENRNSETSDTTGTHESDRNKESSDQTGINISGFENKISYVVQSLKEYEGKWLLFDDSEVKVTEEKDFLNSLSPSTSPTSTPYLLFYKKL
# Method in brief: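 Enzyme-free wells gave the negative control, while test wells held 1nM USP1/UAF1 preincubated with compound for 15 min at room temperature. Ub-Rho at 150nM final started the reaction, and fluorescence at 480/540 nm was recorded kinetically.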
# [10] = qHTS Assay for Identification of Small Molecule Antagonists for NFkB Signaling Pathway (AID 895; active = well fitted inhibition curve with a large enough effect in the signal ratio, with a control signal flat, not every such curve was filed as active; inconclusive = small, poorly fitted or top-dose-only effect, or effect the other way, or a change in a side signal; the % refers to the signal ratio; also: % is scaled to controls: 0 for no effect and ±100 for the full control effect); conditions: NFkB beta-lactamase reporter cells, FRET ratio 460/530, stimulated with 10 pM TNF alpha; activity change, negative = inhibition: at 38.3 µM (top of the series)
# Method in brief: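 NFkB-bla ME-180 cervical carcinoma cells with beta-lactamase reporter under NFkB response element; compounds added, then TNF alpha at 10 pM final (EC50), 5 h at 37 C. LiveBLAzer substrate 2 h, room temperature; emission 460/530 nm at 405 nm excitation.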
# [11] = qHTS Assay for Identification of Small Molecule Antagonists for Thrombopoietin (TPO) Signaling Pathway (AID 918; active = well fitted curve in the direction sought with a large enough effect; inconclusive = small, poorly fitted or top-dose-only effect, or another doubt; inactive = no such curve, though single readings can be large; an effect the other way counts as inactive or inconclusive; also: nearly all actives have a fitted effect of over 60% in size); conditions: TPO-dependent cell signaling reporter, antagonist mode; activity change, negative = inhibition: at 38.5 µM (top of the series)
# Method in brief: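 Luminescence read-out: GPIIb-promoter luciferase in Ba/F3 cells carrying human TPO receptor. Compounds added with 26 pM TPO (EC50), 24 hrs, 37 C, 5% CO2; cells deprived of IL-3 overnight beforehand. Inhibition of signal scored.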
# [12] = target: Muscarinic acetylcholine receptor M1 (Rattus norvegicus) (UniProt P08482); assay: qHTS Assay for Antagonists of Acetylcholine Muscarinic M1 Receptor: Measurement of IP-One Response (AID 944; active = well fitted curve in the direction sought with a large enough effect; inconclusive = small, poorly fitted or top-dose-only effect, or another doubt; inactive = no such curve, though single readings can be large; an effect the other way counts as inactive or inconclusive; also: potency is read from the fitted curve at half-maximal effect; nearly all actives have a fitted effect of over 75% in size)
# UniProt P08482, sequence (P08482 whole entry, looked up): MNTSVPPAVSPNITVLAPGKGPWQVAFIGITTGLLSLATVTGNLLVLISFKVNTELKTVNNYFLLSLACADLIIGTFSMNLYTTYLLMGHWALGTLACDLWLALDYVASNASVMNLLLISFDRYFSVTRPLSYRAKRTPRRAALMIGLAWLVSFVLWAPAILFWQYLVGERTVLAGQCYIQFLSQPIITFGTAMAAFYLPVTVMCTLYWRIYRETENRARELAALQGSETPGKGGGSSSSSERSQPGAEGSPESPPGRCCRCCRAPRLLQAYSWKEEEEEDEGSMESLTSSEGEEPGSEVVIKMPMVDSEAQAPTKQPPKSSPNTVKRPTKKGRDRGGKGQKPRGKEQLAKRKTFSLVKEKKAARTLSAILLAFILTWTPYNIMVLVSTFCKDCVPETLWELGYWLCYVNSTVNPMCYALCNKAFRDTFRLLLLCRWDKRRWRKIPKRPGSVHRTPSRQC
# [13] = target: Cytochrome P450 2C9 (Homo sapiens) (UniProt P11712); assay: qHTS Assay for Inhibitors and Substrates of Cytochrome P450 2C9 (AID 883; active = well fitted curve in the direction sought with a large enough effect; inconclusive = small, poorly fitted or top-dose-only effect, or another doubt; inactive = no such curve, though single readings can be large; an effect the other way counts as inactive or inconclusive; also: % is scaled to controls: 0 for no effect and ±100 for the full control effect; nearly all actives have a fitted effect of over 60% in size)
# UniProt P11712, sequence (P11712 whole entry, looked up): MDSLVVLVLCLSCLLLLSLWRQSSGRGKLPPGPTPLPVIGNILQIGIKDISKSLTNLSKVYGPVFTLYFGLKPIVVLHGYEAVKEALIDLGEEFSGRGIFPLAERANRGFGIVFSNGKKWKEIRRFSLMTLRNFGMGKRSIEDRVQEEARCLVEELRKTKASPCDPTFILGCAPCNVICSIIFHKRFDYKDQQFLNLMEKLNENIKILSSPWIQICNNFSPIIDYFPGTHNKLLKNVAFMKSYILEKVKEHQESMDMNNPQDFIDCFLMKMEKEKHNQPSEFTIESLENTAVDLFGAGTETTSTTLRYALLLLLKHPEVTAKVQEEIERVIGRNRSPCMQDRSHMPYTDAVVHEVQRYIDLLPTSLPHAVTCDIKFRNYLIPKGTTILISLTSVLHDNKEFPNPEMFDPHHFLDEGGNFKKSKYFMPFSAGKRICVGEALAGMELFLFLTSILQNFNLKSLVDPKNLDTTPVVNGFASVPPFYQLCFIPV
# Method in brief: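 A luminogenic readout tracked human CYP2C9 (10nM) converting deoxyluciferin (100uM, at KM) in 25mM KPO4 during 60 min at 37C with regenerated NADPH. Values normalized to 57uM sulphaphenazole as complete inhibition.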
# [14] = at 7.69 µM (top of the series) unless noted
# Tags tell the direction and shape of the fitted curve or compound fluorescence and quenching.
smiles,measurement,setting,value
CN1CCN(c2ncc3nc(-c4ccc(Cl)cc4)c(=O)n(CCC#N)c3n2)CC1,"activity change, negative = inhibition",[1],active: 130% [activator]
same,"activity change, negative = inhibition",[2]; [14],active: 214% [activator]
same,"activity, negative = inhibition",[3],inconclusive: 275% [activator]
same,Potency,[4],inactive
same,Potency,[5],inactive
same,Potency,[6],"inconclusive: 2.51 µM [fluorescent, side channel, partial curve]"
same,"activity change, negative = inhibition",[7],inconclusive: 8.33%
COc1cccc(Nc2ncc3ncc(=O)n(C[C@H]4CCCO4)c3n2)c1,"activity change, negative = inhibition",[1],inconclusive: -97.6% [inhibitor]
same,"activity change, negative = inhibition",[2]; [14],inconclusive: -104% [inhibitor]
same,"activity, negative = inhibition",[3],inconclusive: -92.7% [inhibitor]
same,Potency,[7],"inconclusive: 39.8 µM [cytotoxic, single point]"
N#CCCn1c(=O)c(-c2ccc(F)cc2)nc2cnc(Oc3cccc(Cl)c3)nc21,"activity change, negative = inhibition",[1],inconclusive: 51.5% [activator]
same,"activity change, negative = inhibition",[2]; [14],inconclusive: 46.6% [activator]
same,"activity, negative = inhibition",[3],inconclusive: 57.3% [activator]
same,Potency,[4],inactive
same,Potency,[6],"inconclusive: 3.16 µM [fluorescent, side channel, single point]"
same,"activity change, negative = inhibition",[7],inconclusive: 2.68%
COc1ccc(-n2c(=O)c(-c3cc(F)cc(F)c3)nc3cnc(N4CCNCC4)nc32)cc1,"activity change, negative = inhibition",[1],inconclusive: 60.2% [activator]
same,"activity change, negative = inhibition",[2]; [14],inconclusive: 78.6% [activator]
same,"activity, negative = inhibition",[3],inconclusive: 116% [activator]
same,Potency,[6],active: 3.16 µM
same,"activity change, negative = inhibition",[7],inconclusive: -1.37%
Cc1cnc(CNc2ncncc2-c2ccccc2CN(C)C)cn1,"activity change, negative = inhibition",[1],inconclusive: 31.1% [activator]
same,"activity change, negative = inhibition",[2]; [14],inconclusive: -43.7% [inhibitor]
same,Potency,[6],"inconclusive: 3.16 µM [activator, single point]"
same,Potency,[7],inactive
same,Potency,[8],"inconclusive: 3.98 µM [inhibitor, full curve]"
CCNc1ncc2nc(-c3cc(F)cc(F)c3)c(=O)n(-c3ccccc3)c2n1,"activity change, negative = inhibition",[1],inconclusive: 95.2% [activator]
same,"activity change, negative = inhibition",[2]; [14],inconclusive: 128% [activator]
same,"activity, negative = inhibition",[3],inconclusive: 176% [activator]
same,Potency,[4],"inconclusive: 3.98 µM [activator, partial curve]"
same,Potency,[6],active: 2.51 µM
same,"activity change, negative = inhibition",[7],inconclusive: 6.22%
N#CCCn1c(=O)c(-c2ccc(F)cc2)nc2cnc(N3CCNCC3)nc21,"activity change, negative = inhibition",[1],inconclusive: 98% [activator]
same,"activity change, negative = inhibition",[2]; [14],inconclusive: 163% [activator]
same,"activity, negative = inhibition",[3],inconclusive: 125% [activator]
same,Potency,[6],active: 3.16 µM
same,"activity change, negative = inhibition",[7],inconclusive: 7.54%
Cc1cccc(CNc2cc(-c3ccccc3C)ncn2)c1,"activity change, negative = inhibition",[1],inactive: 13.4%
same,"activity change, negative = inhibition",[2]; [14],inconclusive: 47.3% [activator]
same,"activity, negative = inhibition",[3],inactive: -8.32%
same,Potency,[4],"inconclusive: 6.31 µM [rising, partial curve]"
same,activation,[6],inactive: 16.7%
same,"activity change, negative = inhibition",[7],inconclusive: -23.7%
same,Potency,[9],active: 44.7 µM
O=S(=O)(c1ccccc1)N1CCC2(CCCN(Cc3cc(C(F)(F)F)cc(C(F)(F)F)c3)C2)CC1,"activity change, negative = inhibition",[1],inconclusive: 36.7% [activator]
same,"activity change, negative = inhibition",[2]; [14],inconclusive: -60.1% [inhibitor]
same,Potency,[7],"inconclusive: 2.82 µM [inhibitor, full curve]"
O=c1c(-c2ccc(F)cc2)nc2cnc(N3CCNCC3)nc2n1C1CC1,"activity change, negative = inhibition",[1],inconclusive: 65.1% [activator]
same,"activity change, negative = inhibition",[2]; [14],inconclusive: 102% [activator]
same,"activity, negative = inhibition",[3],inconclusive: 121% [activator]
same,Potency,[6],active: 2.51 µM
same,Potency,[7],inactive
COc1ccc(-n2c(=O)c(-c3cc(F)cc(F)c3)nc3cnc(N4CCOCC4)nc32)cc1,"activity change, negative = inhibition",[1],inconclusive: 63.1% [activator]
same,"activity change, negative = inhibition",[2]; [14],inconclusive: 64.7% [activator]
same,"activity, negative = inhibition",[3],inconclusive: 139% [activator]
same,Potency,[6],active: 1.58 µM
same,"activity change, negative = inhibition",[7],inconclusive: 7.57%
CNCC[C@H](Oc1ccccc1OC)c1ccccc1,"activity change, negative = inhibition",[1],inconclusive: 53.3% [activator] [at 17.2 µM]
same,"activity change, negative = inhibition",[2]; at 17.2 µM (top of the series),inconclusive: -50.3% [inhibitor]
same,"activity change, negative = inhibition",[2]; at 38 µM (top of the series),inconclusive: -63.6% [inhibitor]
same,"activity change, negative = inhibition",[10],inconclusive: -8.54%
same,"activity change, negative = inhibition",[11],inconclusive: -14.7% [phenotype inactive]
same,Potency,[12],active: 11.2 µM
same,"activity change, negative = inhibition",[7],inconclusive: 8.43%
COc1ccccc1CNc1cc(-c2cccc(NS(C)(=O)=O)c2)ncn1,"activity change, negative = inhibition",[1],inconclusive: -35% [inhibitor]
same,"activity change, negative = inhibition",[2]; [14],inactive: -3.65%
same,"activity change, negative = inhibition",[13],inactive: 33% [at 2.29 µM]
same,Potency,[6],"inconclusive: 3.98 µM [inhibitor, partial curve]"
same,"activity change, negative = inhibition",[7],inconclusive: 8.49%
same,Potency,[9],"inconclusive: 89.1 µM [inhibitor, partial curve, poor fit]"
